The results in this text go back to patent US9867795B2, “Nitrated lipids and methods of making and using thereof” (The UAB Research Foundation, priority 2004, dated 2018).

One experiment deals with T1, hPPARγ (Homo sapiens, UniProt P37231).
T1 construct: For assessing full-length PPAR receptors, CV-1 cells were transiently co-transfected; expressed in transfected cells; host or cells: CV-1 cells
T1 sequence (P37231 1-505): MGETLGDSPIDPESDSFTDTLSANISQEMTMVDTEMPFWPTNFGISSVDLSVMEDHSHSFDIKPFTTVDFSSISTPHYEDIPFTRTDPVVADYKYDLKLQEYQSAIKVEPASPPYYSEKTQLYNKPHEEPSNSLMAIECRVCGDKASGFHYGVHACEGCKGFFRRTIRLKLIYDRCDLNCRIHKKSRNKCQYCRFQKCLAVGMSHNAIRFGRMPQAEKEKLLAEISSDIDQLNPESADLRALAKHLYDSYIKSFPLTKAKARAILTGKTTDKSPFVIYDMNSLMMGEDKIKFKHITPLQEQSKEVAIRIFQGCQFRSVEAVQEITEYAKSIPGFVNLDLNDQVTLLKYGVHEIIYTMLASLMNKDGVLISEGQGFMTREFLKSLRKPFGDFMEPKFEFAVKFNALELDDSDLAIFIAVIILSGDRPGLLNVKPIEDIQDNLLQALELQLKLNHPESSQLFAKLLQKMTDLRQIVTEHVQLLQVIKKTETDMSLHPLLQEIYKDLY
The experiment can be described thus: CV-1 PPRE×3 TK-Luciferase transient transfection assay. Format: cell-based. The settings on record: PPRE reporter, CV-1 cells, P≦0.05. From the text: Cell Transient Transfection Assay. […] Then, cells were transiently co-transfected with a plasmid containing the luciferase gene under regulation by four Gal4 DNA binding elements (UASG×4 TK-Luciferase, a gift from Dr. Ronald M. Evans), in concert with plasmids containing the ligand binding domain for the different nuclear receptors fused to the Gal4 DNA binding domain. For assessing full-length PPAR receptors, CV-1 cells were transiently co-transfected with a plasmid containing the luciferase gene under the control of three tandem PPAR response elements (PPRE) (PPRE×3 TK-Luciferase) and hPPARγ, hPPARα or hPPARδ expression plasmids, respectively. In all cases, fluorescence protein (GFP) expression plasmid was co-transfected as the control for the transfection efficiency. Twenty-four hours after the transfection, cells were cultured for another 24 hours in Optium-MEM (Invitrogen, Carlsbad, Calif.). Then, cells were treated with different compounds as indicated in figures for 24 hours in Optium-MEM. Reporter luciferase assay kits from Promega (Madison, Wis.) were used to measure the luciferase activity according to the manufacturer's instructions with a luminometer (Victor II, Perkin-Elmer). […]
PPAR transient transfection assay. […] In all cases, fluorescence protein (GFP) expression plasmid was co-transfected as the control for transfection efficiency. […]

In experiment [1] the target is T2, PPARδ ligand binding domain (Homo sapiens, UniProt Q03181).
T2 construct: expressed in transfected cells; host or cells: CV-1 cells
T2 sequence (Q03181 211-439 limits assumed): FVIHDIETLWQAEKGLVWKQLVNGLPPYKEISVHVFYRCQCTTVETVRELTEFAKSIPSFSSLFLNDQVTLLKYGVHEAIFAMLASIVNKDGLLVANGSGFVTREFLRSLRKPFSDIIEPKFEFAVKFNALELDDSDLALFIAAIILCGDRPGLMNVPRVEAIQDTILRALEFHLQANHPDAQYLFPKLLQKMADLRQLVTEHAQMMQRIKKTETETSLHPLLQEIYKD
As to the kind of experiment: CV-1 Gal4 ligand binding domain luciferase reporter assay. Type of experiment: cell-based. The settings on record: LNO2 1 μM; CV-1 cells. As to the method:
(§1) Cell Transient Transfection Assay. CV-1 cells from ATCC (Manassas, Va.) were grown to ˜85% confluence in DMEM/F12 supplemented with 10% FBS, 1% penicillin-streptomycin. Then, cells were transiently co-transfected with a plasmid containing the luciferase gene under regulation by four Gal4 DNA binding elements (UASG×4 TK-Luciferase, a gift from Dr. Ronald M. Evans), in concert with plasmids containing the ligand binding domain for the different nuclear receptors fused to the Gal4 DNA binding domain. For assessing full-length PPAR receptors, CV-1 cells were transiently co-transfected with a plasmid containing the luciferase gene under the control of three tandem PPAR response elements (PPRE) (PPRE×3 TK-Luciferase) and hPPARγ, hPPARα or hPPARδ expression plasmids, respectively. In all cases, fluorescence protein (GFP) expression plasmid was co-transfected as the control for the transfection efficiency. Twenty-four hours after the transfection, cells were cultured for another 24 hours in Optium-MEM (Invitrogen, Carlsbad, Calif.). Then, cells were treated with different compounds as indicated in figures for 24 hours in Optium-MEM. Reporter luciferase assay kits from Promega (Madison, Wis.) were used to measure the luciferase activity according to the manufacturer's instructions with a luminometer (Victor II, Perkin-Elmer). Luciferase activity was normalized by GFP units. Each condition was performed at least in triplicates in each experiment.
For orientation: In a reporter assay the amount or activity of a reporter protein is the signal.

In experiment [2] the target is T3, PPARα ligand binding domain (Homo sapiens, UniProt Q07869).
T3 construct: expressed in transfected cells; host or cells: CV-1 cells
T3 sequence (Q07869 239-466 limits assumed): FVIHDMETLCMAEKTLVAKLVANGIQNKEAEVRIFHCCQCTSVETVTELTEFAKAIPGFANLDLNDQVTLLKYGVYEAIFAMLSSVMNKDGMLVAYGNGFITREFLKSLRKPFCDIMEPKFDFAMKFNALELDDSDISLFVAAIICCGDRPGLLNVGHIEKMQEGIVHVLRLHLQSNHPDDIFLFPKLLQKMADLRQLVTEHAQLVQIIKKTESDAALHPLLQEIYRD
Described as above. Type of experiment: cell-based. The settings on record: LNO2 1 μM; CV-1 cells. As to the method:
as §1

In experiment [3] the target is T4, glucocorticoid receptor (GR) (Homo sapiens, UniProt P04150).
T4 construct: expressed in transfected cells; host or cells: CV-1 cells
T4 sequence (P04150 524-758 limits assumed): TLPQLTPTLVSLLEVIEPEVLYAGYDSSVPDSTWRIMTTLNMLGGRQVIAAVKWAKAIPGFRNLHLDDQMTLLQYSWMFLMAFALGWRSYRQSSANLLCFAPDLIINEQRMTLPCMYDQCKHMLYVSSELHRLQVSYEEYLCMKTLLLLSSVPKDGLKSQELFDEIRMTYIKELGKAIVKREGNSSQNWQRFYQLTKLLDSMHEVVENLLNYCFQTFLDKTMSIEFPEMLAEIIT
The experiment is described as above. Format: cell-based. As to conditions: LNO2 1 μM; CV-1 cells. As to the method:
as §1

Experiment [4] has as its system mouse RAW264.7 macrophages. As to the kind of experiment: CD36 expression in macrophages (immunoblot, real-time PCR). (In western blotting, separated proteins are transferred to a membrane and probed.)

As to “9- and 10-nitro-9-cis-octadecenoic acid [OA-NO2]”, the “concentration at which PPARγ activation is significantly different from vehicle” value on hPPARγ came out at 100 nM.

For the substance “10-nitro-9,12-octadecadienoic acid and 12-nitro-9,12-octadecadienoic acid [LNO2]”, the “activation of PPARδ (Gal4 LBD reporter)” value in experiment [1] is given as 221%. Also, the “activation of PPARα (Gal4 LBD reporter)” value in experiment [2] came out at 325%. Moreover, the GR receptor activation result in experiment [3] is “no impact”. In experiment [4] (16 hours treatment, immunoblot), the “CD36 receptor protein expression” value is listed as “induced greater CD36 receptor protein expression than an equivalent Rosiglitazone concentration”. Also, in experiment [4] (quantitative real-time PCR), the “CD36 mRNA expression” value was “dose-dependent increase in CD36 mRNA expression”.
